Experimental findings from the BET-seq Pho4 binding data (Le et al. 2018) are described below.

Some of the results follow. Values were computed here from the reads of four pooled replicates and scatter widely.

The test concerns the target T1, Pho4 (S. cerevisiae) (UniProt P07270).
T1 sequence: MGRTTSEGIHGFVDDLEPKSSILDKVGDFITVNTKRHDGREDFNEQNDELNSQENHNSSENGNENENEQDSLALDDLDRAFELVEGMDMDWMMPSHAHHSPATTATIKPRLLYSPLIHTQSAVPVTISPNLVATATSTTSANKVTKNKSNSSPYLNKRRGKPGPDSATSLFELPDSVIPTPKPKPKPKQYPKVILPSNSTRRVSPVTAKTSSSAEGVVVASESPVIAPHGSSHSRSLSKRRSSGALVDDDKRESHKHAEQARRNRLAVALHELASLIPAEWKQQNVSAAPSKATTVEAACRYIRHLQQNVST
The test is described as follows: relative binding free energy (BET-seq); higher = weaker binding. The note with it: reference: library average.
Turning to AGCGTCACGTGGTGTG, the “relative binding free energy” value was -0.06 kcal/mol. Regarding ATTTGCACGTGTATTT, the “relative binding free energy” value worked out at 0.08 kcal/mol. In the case of TTTTGCACGTGAAGGC it was 0.38 kcal/mol; in that of GAAGCCACGTGGGTTG, -0.18 kcal/mol. In the case of TCGTGCACGTGTCAGT it was 0.04 kcal/mol; in that of GGTGCCACGTGGTATG, -0.15 kcal/mol; in that of TTTAACACGTGCCGTT, 0.11 kcal/mol. Consider TTTATCACGTGTCTGA, for which the “relative binding free energy” value came to 0.18 kcal/mol. CCGGGCACGTGTGGTT: the “relative binding free energy” value was -0.07 kcal/mol.

For the sequence ACATGCACGTGTGTAA, the “relative binding free energy” value stood at 0.09 kcal/mol.

For the sequence TGTTGCACGTGTCACG, the “relative binding free energy” value was 0 kcal/mol.

For TTTAGCACGTGAGCAT, the “relative binding free energy” value came out at 0.24 kcal/mol. Take GTTAACACGTGGATGA: the “relative binding free energy” value was 0.06 kcal/mol. On to GGGGTCACGTGGACTG, for which the “relative binding free energy” value came out at 0.05 kcal/mol. For TGAGTCACGTGTGTCT, the “relative binding free energy” value was determined as 0.12 kcal/mol. Take TATAGCACGTGTCTTA: the “relative binding free energy” value was -0.04 kcal/mol. As for GGGCGCACGTGAAGTC, the “relative binding free energy” value was 0.32 kcal/mol.

For GATAGCACGTGTTAGC, the “relative binding free energy” value is 0.17 kcal/mol. With TTTATCACGTGGGTCT, the “relative binding free energy” value amounted to 0.08 kcal/mol.

As for TAGTGCACGTGTGTTT, the “relative binding free energy” value stood at 0.1 kcal/mol.

Take TGGGACACGTGAATTT: the “relative binding free energy” value came to 0.38 kcal/mol. In the case of TGGCTCACGTGTGGGA it was 0.11 kcal/mol.

In the case of ACAGGCACGTGTTAGG, the “relative binding free energy” value is -0.17 kcal/mol. With TGTGTCACGTGTACGT the figure was 0.06 kcal/mol; with TCTTGCACGTGGGGCG, -0.1 kcal/mol; with AGTGACACGTGGCGGA, -0.1 kcal/mol.

Consider CAGGACACGTGTAAGG, for which the “relative binding free energy” value worked out at 0.27 kcal/mol. With GGTCCCACGTGTGGTG the figure was -0.02 kcal/mol; with GTGAGCACGTGGAAAG, 0.16 kcal/mol. In the case of TAGGGCACGTGGTCTG it was -0.25 kcal/mol; in that of TTGGGCACGTGGTGTA, -0.21 kcal/mol. With ATGATCACGTGGTATG, the “relative binding free energy” value came out at 0.12 kcal/mol. In the case of TGATACACGTGTGGAA it was 0.11 kcal/mol; in that of TTAGACACGTGCTTGG, -0.01 kcal/mol; in that of GTGTACACGTGGGCGC, -0.22 kcal/mol. Regarding TAGAACACGTGTTAGG, the “relative binding free energy” value came out at 0.06 kcal/mol. Regarding TTAGCCACGTGTTAGT, the “relative binding free energy” value is -0.11 kcal/mol. In the case of TACGACACGTGAGTGG it was 0.18 kcal/mol. For TACGTCACGTGTGTTA, the “relative binding free energy” value is 0.06 kcal/mol. On to TAGCTCACGTGTAAGT, for which the “relative binding free energy” value was 0.3 kcal/mol. GGGGGCACGTGTCGTT: the “relative binding free energy” value is 0.11 kcal/mol. In the case of AGTAACACGTGGTGCG it was -0.08 kcal/mol; in that of GGGGTCACGTGTATAA, 0.12 kcal/mol. As for TGCTCCACGTGAGGTG, the “relative binding free energy” value worked out at 0.21 kcal/mol. As for ATGCGCACGTGATTGT, the “relative binding free energy” value was -0.04 kcal/mol.

On to GGTAACACGTGTGATG, for which the “relative binding free energy” value was 0.03 kcal/mol. In the case of GTGATCACGTGTCTTG, the “relative binding free energy” value stood at 0.19 kcal/mol. For the sequence TTTCGCACGTGTTATG, the “relative binding free energy” value is -0.03 kcal/mol. As to TGGTTCACGTGTGATT, the “relative binding free energy” value amounted to 0.32 kcal/mol. With CGATTCACGTGATGGG the figure was 0.4 kcal/mol; with TTCCTCACGTGTTGGG, 0.12 kcal/mol. For ATTAGCACGTGTGTTG, the “relative binding free energy” value came to 0.06 kcal/mol.

GGCGTCACGTGGCTGG: the “relative binding free energy” value is -0.01 kcal/mol. For the sequence TTTGACACGTGGCGTT, the “relative binding free energy” value is -0.05 kcal/mol. Regarding TTTACCACGTGGTGTA, the “relative binding free energy” value is -0.25 kcal/mol. Turning to ATAAGCACGTGGGAAG, the “relative binding free energy” value was -0.09 kcal/mol.

Regarding ACATGCACGTGTTGAT, the “relative binding free energy” value is -0.05 kcal/mol. On to ATGCTCACGTGGTCGG, for which the “relative binding free energy” value was determined as 0.06 kcal/mol. As to ATGGCCACGTGATTTT, the “relative binding free energy” value is 0.19 kcal/mol. As to ATTAACACGTGATGGA, the “relative binding free energy” value was 0.2 kcal/mol. As for TGAAGCACGTGAGGAG, the “relative binding free energy” value stood at 0.25 kcal/mol.

Turning to ATATTCACGTGGGTAA, the “relative binding free energy” value turned out to be 0.15 kcal/mol. TTCTTCACGTGTGACT: the “relative binding free energy” value was 0.27 kcal/mol. Consider GGCTACACGTGGGCGG, for which the “relative binding free energy” value was -0.09 kcal/mol.

In the case of AGTAGCACGTGAGGCG, the “relative binding free energy” value worked out at 0.07 kcal/mol. GCTAGCACGTGTGAGT: the “relative binding free energy” value amounted to 0.16 kcal/mol. As for AGCCTCACGTGGGGGG, the “relative binding free energy” value was -0.06 kcal/mol.

For GGCATCACGTGGGGCG, the “relative binding free energy” value turned out to be 0.03 kcal/mol. GACTACACGTGTTGTG: the “relative binding free energy” value is 0.18 kcal/mol.

As for TCGTGCACGTGGGGTC, the “relative binding free energy” value is -0.22 kcal/mol. On to GCTGTCACGTGTGTTA, for which the “relative binding free energy” value worked out at 0.11 kcal/mol. In the case of GTGTTCACGTGAGTCG, the “relative binding free energy” value came out at 0.16 kcal/mol. With TGCTCCACGTGGTTTG the figure was 0.13 kcal/mol; with GATTACACGTGGTGCT, 0.14 kcal/mol; with TAGCTCACGTGGTGCT, 0.09 kcal/mol. With AGATGCACGTGAGGCG the figure was 0.05 kcal/mol; with GTATGCACGTGGGTGC, -0.25 kcal/mol. With TCTATCACGTGGTGTC, the “relative binding free energy” value turned out to be 0.1 kcal/mol. In the case of TGATTCACGTGAGTGG it was 0.39 kcal/mol.

Take TACTACACGTGTGGGA: the “relative binding free energy” value worked out at 0.14 kcal/mol. In the case of CGGTTCACGTGGTGGC, the “relative binding free energy” value was determined as 0.33 kcal/mol. Take GTTAACACGTGTATTT: the “relative binding free energy” value stood at 0.09 kcal/mol. Consider AGGATCACGTGCTTGG, for which the “relative binding free energy” value worked out at 0.1 kcal/mol.

CATATCACGTGGGATG: the “relative binding free energy” value was determined as 0.11 kcal/mol.

In the case of TTAGACACGTGAGATA, the “relative binding free energy” value worked out at 0.17 kcal/mol. As to TGAGTCACGTGGTTCG, the “relative binding free energy” value was -0.01 kcal/mol.

For TTTGGCACGTGCGGGT, the “relative binding free energy” value is -0.12 kcal/mol. On to GTTGCCACGTGAGGTT, for which the “relative binding free energy” value came to 0.22 kcal/mol.

For the sequence CGGTTCACGTGAGGAT, the “relative binding free energy” value is 0.32 kcal/mol. On to TAGAGCACGTGGTGGT, for which the “relative binding free energy” value is -0.15 kcal/mol.

Turning to AGCGGCACGTGGAGGG, the “relative binding free energy” value is -0.1 kcal/mol.

On to AGTAGCACGTGATAAT, for which the “relative binding free energy” value turned out to be 0.05 kcal/mol. For AGGGTCACGTGCACGG, the “relative binding free energy” value was determined as 0.05 kcal/mol. With GGGTCCACGTGGGACG the figure was -0.18 kcal/mol. As to AACGTCACGTGTTGAT, the “relative binding free energy” value is 0.16 kcal/mol. AATGTCACGTGATGAT: the “relative binding free energy” value worked out at 0.13 kcal/mol. GTTGACACGTGGAAGA: the “relative binding free energy” value came out at 0.19 kcal/mol. Turning to GGACTCACGTGGTTGT, the “relative binding free energy” value worked out at 0.27 kcal/mol. Regarding AGCGTCACGTGGTGGA, the “relative binding free energy” value amounted to 0.08 kcal/mol.

With GTTTCCACGTGTGGTA, the “relative binding free energy” value was determined as 0.22 kcal/mol.

For the sequence GGTTACACGTGGCAGA, the “relative binding free energy” value is 0.09 kcal/mol. For the sequence GTGATCACGTGTAGTT, the “relative binding free energy” value stood at 0.09 kcal/mol. Regarding GGTGACACGTGACGGT, the “relative binding free energy” value stood at 0.18 kcal/mol. For TAACTCACGTGGAGGT, the “relative binding free energy” value stood at 0.26 kcal/mol. Regarding TATTACACGTGTGAAT, the “relative binding free energy” value is 0.09 kcal/mol.

Take TTTTTCACGTGAATCA: the “relative binding free energy” value came to 0.47 kcal/mol. TTTTGCACGTGAAGAT: the “relative binding free energy” value came out at 0.2 kcal/mol.

As for TTATCCACGTGATATT, the “relative binding free energy” value turned out to be 0.29 kcal/mol. As to GTTCGCACGTGACGGT, the “relative binding free energy” value was 0.24 kcal/mol. With TTTGACACGTGCTCGG the figure was -0.02 kcal/mol; with GGGTGCACGTGTATTG, 0.13 kcal/mol; with CTATGCACGTGAGTGG, 0.14 kcal/mol. For CTTTGCACGTGAAGTG, the “relative binding free energy” value was 0.29 kcal/mol. AAGGACACGTGCTGGG: the “relative binding free energy” value is -0.07 kcal/mol. Take GTGCTCACGTGCGAGG: the “relative binding free energy” value worked out at 0.27 kcal/mol. Take TGTTACACGTGGTGCT: the “relative binding free energy” value was -0.03 kcal/mol. Regarding AGGGACACGTGGTCAT, the “relative binding free energy” value is -0.12 kcal/mol. Consider GTGGTCACGTGTTACG, for which the “relative binding free energy” value came out at 0.24 kcal/mol.

For the sequence ATTTTCACGTGACAGA, the “relative binding free energy” value was 0.38 kcal/mol.

With AAGCTCACGTGGTGAG, the “relative binding free energy” value was 0.23 kcal/mol. Regarding TTGAACACGTGGTTCA, the “relative binding free energy” value was determined as 0.05 kcal/mol. Turning to AATTGCACGTGGTCTT, the “relative binding free energy” value is -0.08 kcal/mol. GTAGGCACGTGTTTGT: the “relative binding free energy” value is -0.01 kcal/mol.

Consider TATTTCACGTGAAGGC, for which the “relative binding free energy” value came out at 0.24 kcal/mol. Consider TGACTCACGTGGGGGA, for which the “relative binding free energy” value is 0.04 kcal/mol. In the case of TTTGACACGTGTATGA it was -0.07 kcal/mol.

For GATTGCACGTGAAGGA, the “relative binding free energy” value was found to be 0.33 kcal/mol.

GTAAGCACGTGGGACG: the “relative binding free energy” value is -0.07 kcal/mol. As to CGGTTCACGTGATAGG, the “relative binding free energy” value is 0.27 kcal/mol. For ATATTCACGTGGACGG, the “relative binding free energy” value worked out at 0.3 kcal/mol. On to TGTGTCACGTGGACTG, for which the “relative binding free energy” value worked out at 0.09 kcal/mol. With TACTTCACGTGCTGGG the figure was 0.3 kcal/mol. Regarding TTTAGCACGTGACGGG, the “relative binding free energy” value was determined as 0.06 kcal/mol. Regarding CGGGTCACGTGTAGAG, the “relative binding free energy” value stood at 0.13 kcal/mol. Take GTAAGCACGTGATTTG: the “relative binding free energy” value worked out at 0.24 kcal/mol.

For ATGGTCACGTGGGGCT, the “relative binding free energy” value is -0.05 kcal/mol. Regarding TTTCACACGTGGGGGC, the “relative binding free energy” value is -0.08 kcal/mol. In the case of GGGGTCACGTGGAACG it was 0.28 kcal/mol; in that of TTTCCCACGTGTATGT, -0.05 kcal/mol; in that of GGGTGCACGTGGATTG, 0.06 kcal/mol. Turning to AGGTACACGTGGGGCG, the “relative binding free energy” value is -0.06 kcal/mol. Consider TTCGTCACGTGGGCTA, for which the “relative binding free energy” value was 0.07 kcal/mol. Take TTTGGCACGTGGGAAC: the “relative binding free energy” value is -0.22 kcal/mol. With GTTGCCACGTGTTGTG, the “relative binding free energy” value was -0.03 kcal/mol. TTGTCCACGTGTGGGC: the “relative binding free energy” value came to 0.06 kcal/mol. Turning to CGTGTCACGTGGTGTT, the “relative binding free energy” value worked out at 0.05 kcal/mol.
